The subject of the assay is NCI-H322M lung. The assay can be described thus: NCI tumour cell line growth inhibition, 48 h.

Among the data in PubChem BioAssay (NCI) are GI50 and TGI values, retold here.

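Interpolation was linear, between the two tested concentrations surrounding the appropriate level; five concentrations were tested over 48 hours in 96-well plates. The concentration for 50% growth inhibition is given as GI50. TGI marks complete inhibition of growth.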

Consider `C#C[C@]1(O)CC[C@H]2[C@@H]3CC=C4c5sc(Nc6cccc(Cl)n6)nc5CC[C@]4(C)[C@H]3CC[C@@]21C`, for which the GI50 is 2.12 µM and the TGI came to 6.98 µM.
